# Assay results published in paper PMC5881502 (The Journal of Cell Biology, 2018).
# B1: BPIA-labeled Hsp42-Y11C/C127A (natural protein)
# chain: not shown
# modifications: benzophenone-4-iodoacetamide (BPIA) on the cysteine at position 11
# Biological target: the molecule itself
# Experiment: cross-linking
protein,measurement,value
B1,binding result,binds
